In article PMC9911399, “Two distinct binding modes provide the RNA-binding protein RbFox with extraordinary sequence specificity”:
Positions count from the first letter of the chain named. This is one part of the list.

B1: CCGAGAG (DNA:RNA)
RNA: GGGAGACCGGAAUUCAGAUUGUCCCCGAGAGUUAAAUCCCGUCGUAGCCACCA
DNA 1: CAATCTGAATTCCGGTCTCCC
DNA 2: TGGTGGCTACGACGGGATT
B2: AUGAAGC (DNA:RNA)
RNA: B1 RNA with C25A, C26U, G29A, A30G, G31C
DNA 1: CAATCTGAATTCCGGTCTCCC
DNA 2: TGGTGGCTACGACGGGATT
B3: AAACGUC (DNA:RNA)
RNA: B1 RNA with C25A, C26A, G27A, A28C, A30U, G31C
DNA 1: CAATCTGAATTCCGGTCTCCC
DNA 2: TGGTGGCTACGACGGGATT
B4: GAUGACA (DNA:RNA)
RNA: GGGAGACCGGAAUUCAGAUUGUCCGAUGACAUUAAAUCCCGUCGUAGCCACCA
DNA 1: CAATCTGAATTCCGGTCTCCC
DNA 2: TGGTGGCTACGACGGGATT
B5: AGCAAGU (DNA:RNA)
RNA: B1 RNA with C25A, C26G, G27C, G29A, A30G, G31U
DNA 1: CAATCTGAATTCCGGTCTCCC
DNA 2: TGGTGGCTACGACGGGATT
B6: UGUACUA (DNA:RNA)
RNA: B4 RNA with G25U, A26G, G28A, A29C, C30U
DNA 1: CAATCTGAATTCCGGTCTCCC
DNA 2: TGGTGGCTACGACGGGATT
B7: GCUAGUG (DNA:RNA)
RNA: B1 RNA with C25G, G27U, A30U
DNA 1: CAATCTGAATTCCGGTCTCCC
DNA 2: TGGTGGCTACGACGGGATT
B8: AGCGUAA (DNA:RNA)
RNA: B4 RNA with G25A, A26G, U27C, A29U, C30A
DNA 1: CAATCTGAATTCCGGTCTCCC
DNA 2: TGGTGGCTACGACGGGATT
B9: UUCGAGC (DNA:RNA)
RNA: B4 RNA with G25U, A26U, U27C, C30G, A31C
DNA 1: CAATCTGAATTCCGGTCTCCC
DNA 2: TGGTGGCTACGACGGGATT
B10: AGAUCCG (DNA:RNA)
RNA: B1 RNA with C25A, C26G, G27A, A28U, G29C, A30C
DNA 1: CAATCTGAATTCCGGTCTCCC
DNA 2: TGGTGGCTACGACGGGATT
B11: GAGCUUG (DNA:RNA)
RNA: B1 RNA with C25G, C26A, A28C, G29U, A30U
DNA 1: CAATCTGAATTCCGGTCTCCC
DNA 2: TGGTGGCTACGACGGGATT
B12: GCCUAGG (DNA:RNA)
RNA: B1 RNA with C25G, G27C, A28U, G29A, A30G
DNA 1: CAATCTGAATTCCGGTCTCCC
DNA 2: TGGTGGCTACGACGGGATT
B13: UAAGAGU (DNA:RNA)
RNA: B4 RNA with G25U, U27A, C30G, A31U
DNA 1: CAATCTGAATTCCGGTCTCCC
DNA 2: TGGTGGCTACGACGGGATT
B14: GGUUCAG (DNA:RNA)
RNA: B1 RNA with C25G, C26G, G27U, A28U, G29C
DNA 1: CAATCTGAATTCCGGTCTCCC
DNA 2: TGGTGGCTACGACGGGATT
B15: GAAGCAA (DNA:RNA)
RNA: B4 RNA with U27A, A29C, C30A
DNA 1: CAATCTGAATTCCGGTCTCCC
DNA 2: TGGTGGCTACGACGGGATT
B16: AGGUUGA (DNA:RNA)
RNA: B1 RNA with C25A, C26G, A28U, G29U, A30G, G31A
DNA 1: CAATCTGAATTCCGGTCTCCC
DNA 2: TGGTGGCTACGACGGGATT
B17: UGUGAUU (DNA:RNA)
RNA: B4 RNA with G25U, A26G, C30U, A31U
DNA 1: CAATCTGAATTCCGGTCTCCC
DNA 2: TGGTGGCTACGACGGGATT
B18: CUUUGGC (DNA:RNA)
RNA: B1 RNA with C26U, G27U, A28U, A30G, G31C
DNA 1: CAATCTGAATTCCGGTCTCCC
DNA 2: TGGTGGCTACGACGGGATT
B19: GUUGCUC (DNA:RNA)
RNA: B4 RNA with A26U, A29C, C30U, A31C
DNA 1: CAATCTGAATTCCGGTCTCCC
DNA 2: TGGTGGCTACGACGGGATT
B20: GCCAAUU (DNA:RNA)
RNA: B1 RNA with C25G, G27C, G29A, A30U, G31U
DNA 1: CAATCTGAATTCCGGTCTCCC
DNA 2: TGGTGGCTACGACGGGATT

Target: T1, RBFOX1 RRM RbFoxmut (Fox-RRM*) (Homo sapiens, UniProt Q9NWB1 109-208, R118D;E147R;N151S;E152T)
T1 sequence: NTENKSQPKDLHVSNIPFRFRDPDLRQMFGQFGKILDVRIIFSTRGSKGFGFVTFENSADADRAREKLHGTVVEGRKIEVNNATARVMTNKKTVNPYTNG
Test: EMSA; HiTS-Eq, 1 nM pool, 10 min; buffer printed only for the single-RNA assays: 10 mM Tris pH 7.5, 150 mM NaCl, 3.4 mM EDTA, 0.001% NP-40, 30 C
Settings: tags: His6 N-terminal (pET28a); label: 5' 32P
Procedure, shortened: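 Purified wild-type or mutant RbFox RRM at increasing concentrations was equilibrated with 1 nM of 5′-radiolabelled RNA carrying 7 randomized nucleotides for 10 min in 50 µL. Unbound RNA was separated by 8% native PAGE and sequenced. Relative association constants came from read-count changes of each RNA species compared with the control reaction, normalised to the cognate motif.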

Binder	binding signal
B1	0.102 KA relative to UGCAUGU
B2	0.116 KA relative to UGCAUGU
B3	0.0555 KA relative to UGCAUGU
B4	0.0578 KA relative to UGCAUGU
B5	0.0932 KA relative to UGCAUGU
B6	0.106 KA relative to UGCAUGU
B7	0.13 KA relative to UGCAUGU
B8	0.129 KA relative to UGCAUGU
B9	0.116 KA relative to UGCAUGU
B10	0.0586 KA relative to UGCAUGU
B11	0.253 KA relative to UGCAUGU
B12	0.115 KA relative to UGCAUGU
B13	0.0977 KA relative to UGCAUGU
B14	0.131 KA relative to UGCAUGU
B15	0.0691 KA relative to UGCAUGU
B16	0.231 KA relative to UGCAUGU
B17	0.125 KA relative to UGCAUGU
B18	0.118 KA relative to UGCAUGU
B19	0.0758 KA relative to UGCAUGU
B20	0.0539 KA relative to UGCAUGU
